Source: the supplement of paper PMC12217912
The list shows a part of the results. Sequences were assembled here from the parent chain. Values near 0.05 are background.

B1: TEV protease; numbered along this chain (parent)
chain: MGESLFKGPRDYNPISSSICHLTNESDGHTTSLYGIGFGPFIITNKHLFRRNNGTLVVQSLHGVFKVKDTTTLQQHLVDGRDMIIIRMPKDFPPFPQKLKFREPQREERICLVTTNFQTKSMSSMVSDTSCTFPSGDGIFWKHWIQTKDGQCGSPLVSTRDGFIVGIHSASNFTNTNNYFTSVPKNFMELLTNQEAQQWVSGWRLNADSVLWGGHKVFMVKPEEPFQPVKEATQL

Variants of: B1
Assay: raw area under fraction-flipped curve 0-4 h after induction (AUC4h, not background-subtracted), DNA-recorder readout of cleavage of the substrate (dimensionless); higher = more cleavage of the substrate by the protease variant
Details: temperature: 34 °C; time window: 0-4 h after rhamnose induction
Experimental: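 In vivo DNA recorder in E. coli TOP10(DE3) ΔrhaA at 34 °C. Each TEVp single-site mutant (parent TEVp 0) is paired with a single-site variant of the 7-mer TEVs (canonical ENLYFQ|S). The substrate sits between flexible linkers in a Bxb1-sfGFP-TEVs-SsrA fusion, so cleavage stabilises Bxb1 and speeds flipping of a recombination array, read by NGS. The value is the raw area under the fraction-flipped curve over 0-4 h after rhamnose induction (AUC4h), with ≥20 reads per time point. It is not background-subtracted; inactive controls average about 0.047.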
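Also: Bxb1 expression induced with 0.2% (w/v) L-rhamnose at OD600 near 0.5, cultures sampled hourly, flipped fraction per protease–substrate barcode pair counted by paired-end Illumina sequencing.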

Variant	area with substrate CNLYFQS	area with substrate DNLYFQS	area with substrate INLYFQS	area with substrate LNLYFQS	area with substrate MNLYFQS	area with substrate NNLYFQS	area with substrate PNLYFQS	area with substrate SNLYFQS	area with substrate TNLYFQS	area with substrate WNLYFQS	area with substrate YNLYFQS	area with substrate FNLYFQS	area with substrate HNLYFQS	area with substrate KNLYFQS	area with substrate RNLYFQS	area with substrate VNLYFQS	area with substrate QNLYFQS	area with substrate GNLYFQS
Q75A	0.037	0.118	0.0413	0.0693	0.0537	0.0679	0.0366	0.0645	0.0658	0.0574	0.0725	–	–	–	–	–	–	–
Q75E	0.0576	0.0619	0.0596	0.0641	0.0604	0.0485	0.0634	–	0.0564	–	0.0601	0.0653	0.0571	0.0603	0.0612	0.0659	–	–
S60C	0.0573	0.084	0.0598	0.0659	0.0599	0.0845	0.0648	0.0738	0.0657	0.0619	0.0603	–	0.0585	0.0806	0.0629	0.0692	0.0761	–
N53D	0.0787	0.0917	0.0417	–	–	–	0.0703	0.0533	0.0603	0.0575	0.0691	–	–	0.098	0.0705	–	0.0552	0.0603
R106S	0.0663	0.0895	0.0706	–	–	0.0627	0.0662	0.0657	–	0.0638	0.0624	0.0571	0.0657	0.069	–	0.0698	–	0.0587
L99R	0.0874	0.0553	0.062	0.0676	0.068	–	0.0717	0.0834	0.0885	0.064	0.0764	–	0.0695	0.057	–	0.0594	–	0.0705
N116Y	0.065	0.0731	–	–	0.0687	–	0.0498	0.0677	0.0621	–	0.043	0.0593	0.0512	0.0802	–	0.0683	–	0.0608
T44I	0.045	0.0638	0.0564	0.057	0.0482	0.0603	0.0582	–	0.0577	0.052	–	0.0602	0.0471	0.0571	–	0.0599	0.0424	0.0601
G162L	0.0421	0.081	0.0553	0.053	0.0507	0.0584	0.0644	–	0.0616	0.0566	0.0551	0.0644	0.0465	–	–	–	0.0687	0.067
G162D	0.0675	0.0838	–	–	0.0617	0.0491	0.0653	–	0.0617	0.063	–	0.0663	–	–	–	0.0721	–	0.0654
H62I	0.0641	0.0726	–	0.0683	–	0.0772	0.0686	0.0677	0.0579	0.0597	–	–	0.0477	–	0.0564	–	–	–
V157E	0.0526	0.0718	0.0629	0.0487	0.0541	–	0.0372	0.0457	0.0539	0.0483	0.0439	0.0555	0.0603	0.0539	0.0109	–	–	0.0567
D137V	0.0929	0.0783	0.0745	0.08	–	–	–	0.0683	0.0545	0.0679	–	–	0.0607	–	0.0714	–	–	–
D137F	0.0604	0.0728	–	0.0536	0.0556	0.053	0.06	–	0.0569	–	0.0612	–	0.0662	0.0713	–	–	–	0.0464
L73Q	0.053	0.0597	0.0429	–	0.0539	0.0574	0.0428	0.0626	0.0531	0.05	0.0497	–	0.0559	0.0284	0.0515	–	0.0527	0.0499
Q198L	0.0682	0.0518	0.0603	–	0.0734	–	0.0576	–	0.0534	0.0618	–	0.0553	–	–	–	–	0.0554	0.0712
Q198N	0.0752	0.0844	–	0.066	–	0.0596	–	–	–	0.0646	0.036	–	0.0778	0.085	–	–	–	–
D79W	0.0661	0.0932	–	0.0621	0.0569	–	0.0792	0.0613	0.0674	0.0598	–	–	0.0683	–	–	–	–	–
T70R	0.0536	0.0514	–	0.0524	0.0534	0.0788	0.0685	0.0363	0.0463	0.047	0.0426	–	–	–	0.0552	–	–	–
T181F	0.0555	0.0807	0.0685	0.0793	0.0601	–	0.0512	0.0524	0.0732	–	–	–	0.0581	–	–	–	–	0.0693
T159I	0.0827	0.0864	–	–	–	–	0.0768	0.0591	0.0569	0.0713	–	–	0.0651	–	–	0.0768	–	–
N13H	0.0696	0.0829	0.0639	0.0655	0.061	0.0717	0.0709	0.0486	0.0619	0.0818	0.056	0.0707	0.064	0.0596	–	0.0928	–	0.0688
H29M	0.0748	0.0957	0.061	0.0652	0.0634	–	0.0629	0.084	0.0418	0.0525	0.0904	0.0741	0.07	–	–	–	–	0.0552
T233M	0.0993	0.0612	0.0754	0.0541	0.0432	0.0752	0.0646	0.0754	0.0677	0.0642	0.0698	–	0.0565	0.0672	–	–	–	0.0712
T233E	0.0576	0.0953	0.0652	0.0812	–	0.0495	0.0654	–	–	0.055	–	–	–	–	–	–	0.0745	–
F49D	0.0549	0.0483	0.0571	0.057	0.0377	–	0.0469	0.061	0.0745	0.0464	0.0616	–	0.0707	0.069	–	0.0513	–	–
F226E	0.0669	0.0977	–	0.0266	–	0.0684	0.0597	–	0.0664	0.0608	0.0385	0.0704	0.0619	0.0692	0.0665	–	–	0.0718
Q97H	0.0655	0.0809	0.0584	0.0652	–	0.061	0.0642	–	0.0594	0.0537	–	0.0458	0.0651	0.0623	–	–	0.0706	–
Q227W	0.0331	0.0629	–	–	–	–	0.0671	0.0493	0.0662	0.0375	–	–	0.0455	0.062	–	0.057	–	0.0722
